pIC50: −log10 of the molar value. By IC50 is meant the dose at which the fit gives 50% viability; a limit (>, <) means that the fit lies beyond the doses tested. AUC sums up the same curve from the lowest dose to the 256-fold higher top dose; it is 1 without any effect and falls as sensitivity rises. For some assays here: An inferred top dose was derived from the fitted curves, not read from the paper.
Columns and labels:
Assay in all cases: Viability of human cancer cell lines after 72 h of drug (GDSC screen)
ZG-10 = compound: CN(C)C/C=C/C(=O)Nc1ccc(C(=O)Nc2cccc(Nc3nccc(-c4cccnc4)n3)c2)cc1 [ZG-10]; conditions: top dose 10 µM; top dose inferred
Experimental: (§1)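 Human cancer cell lines in 384-well plates, medium with 10% serum, drug for 72 h over a 256-fold dose range (nine 2-fold or five 4-fold steps up to the top dose). Adherent lines were fixed and stained with the nucleic acid dye Syto60, suspension lines read with resazurin; signal relative to control wells, capped at 0 and 100%. One two-parameter sigmoid per drug and line, fitted in a mixed model over all curves with the slope shared within a line.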

Temozolomide = compound: Cn1nnc2c(C(N)=O)ncn2c1=O [Temozolomide]; conditions: top dose 30 µM
Experimental: as §1

IPA-3 = compound: Oc1ccc2ccccc2c1SSc1c(O)ccc2ccccc12 [IPA-3]; conditions: top dose 32 µM; top dose inferred
Experimental: as §1

XL-880 = compound: COc1cc2c(Oc3ccc(NC(=O)C4(C(=O)Nc5ccc(F)cc5)CC4)cc3F)ccnc2cc1OCCCN1CCOCC1 [XL-880]; conditions: top dose 5.12 µM; top dose inferred
Experimental: as §1

CI-1040 = compound: O=C(NOCC1CC1)c1ccc(F)c(F)c1Nc1ccc(I)cc1Cl [CI-1040]; conditions: top dose 10 µM; top dose inferred
Experimental: as §1

Tubastatin A = compound: CN1CCc2c(c3ccccc3n2Cc2ccc(C(=O)NO)cc2)C1 [Tubastatin A]; conditions: top dose 20 µM
Experimental: as §1

With H2461 (mesothelioma, adherent) the AUC (ZG-10) was 0.847, the pIC50 (ZG-10) was under 5.00 and the AUC (Temozolomide) was 0.98. The pIC50 (Temozolomide) was under 4.52, the AUC (IPA-3) was 0.929 and the pIC50 (IPA-3) was under 4.49. The AUC (XL-880) was 0.829, the pIC50 (XL-880) was 5.36 and the AUC (CI-1040) was 0.953. The pIC50 (CI-1040) was under 5.00, the AUC (Tubastatin A) was 0.982 and the pIC50 (Tubastatin A) was under 4.70.

In the case of A2780 (ovary, semi-adherent), the AUC (ZG-10) was 0.739, the pIC50 (ZG-10) was 5.51 and the AUC (Temozolomide) was 0.982. It also gave a pIC50 (Temozolomide) of under 4.52, an AUC (IPA-3) of 0.709 and a pIC50 (IPA-3) of 5.10. It also gave an AUC (XL-880) of 0.365, a pIC50 (XL-880) of 6.87 and an AUC (CI-1040) of 0.679. The pIC50 (CI-1040) was 5.69, the AUC (Tubastatin A) was 0.886 and the pIC50 (Tubastatin A) was under 4.70.

Cell Line CHSA0108 (chondrosarcoma, adherent) has an AUC (ZG-10) of 0.629, a pIC50 (ZG-10) of 5.82 and an AUC (Temozolomide) of 0.981. For the same cell line, the pIC50 (Temozolomide) was under 4.52, the AUC (IPA-3) was 0.96 and the pIC50 (IPA-3) was under 4.49. It also gave an AUC (XL-880) of 0.641, a pIC50 (XL-880) of 6.08 and an AUC (CI-1040) of 0.876. For the same cell line, the pIC50 (CI-1040) was under 5.00, the AUC (Tubastatin A) was 0.867 and the pIC50 (Tubastatin A) was under 4.70.

In the case of “LCLC-97TM1 (large cell lung carcinoma, adherent)”, the AUC (ZG-10) was 0.688, the pIC50 (ZG-10) was 5.65 and the AUC (Temozolomide) was 0.98. The pIC50 (Temozolomide) was under 4.52, the AUC (IPA-3) was 0.866 and the pIC50 (IPA-3) was under 4.49. It also gave an AUC (XL-880) of 0.56, a pIC50 (XL-880) of 6.32 and an AUC (CI-1040) of 0.649. The pIC50 (CI-1040) was 5.77, the AUC (Tubastatin A) was 0.832 and the pIC50 (Tubastatin A) was 4.84.

In the case of “NCI-H1993 (lung adenocarcinoma, adherent)”, the AUC (ZG-10) was 0.792, the pIC50 (ZG-10) was 5.21 and the AUC (Temozolomide) was 0.981. For the same cell line, the pIC50 (Temozolomide) was under 4.52, the AUC (IPA-3) was 0.945 and the pIC50 (IPA-3) was under 4.49. The AUC (XL-880) was 0.757, the pIC50 (XL-880) was 5.64 and the AUC (CI-1040) was 0.983. For the same cell line, the pIC50 (CI-1040) was under 5.00, the AUC (Tubastatin A) was 0.964 and the pIC50 (Tubastatin A) was under 4.70.

Work on “NCI-H1781 (lung adenocarcinoma, adherent)” yielded an AUC (ZG-10) of 0.738, a pIC50 (ZG-10) of 5.53 and an AUC (Temozolomide) of 0.986. The pIC50 (Temozolomide) was under 4.52, the AUC (IPA-3) was 0.966 and the pIC50 (IPA-3) was under 4.49. It also gave an AUC (XL-880) of 0.866, a pIC50 (XL-880) of 5.34 and an AUC (CI-1040) of 0.956. It also gave a pIC50 (CI-1040) of under 5.00, an AUC (Tubastatin A) of 0.986 and a pIC50 (Tubastatin A) of under 4.70.

Work on “NCI-H2291 (lung adenocarcinoma, adherent)” yielded an AUC (ZG-10) of 0.808, a pIC50 (ZG-10) of 5.11 and an AUC (Temozolomide) of 0.968. For the same cell line, the pIC50 (Temozolomide) was under 4.52, the AUC (IPA-3) was 0.968 and the pIC50 (IPA-3) was under 4.49. The AUC (XL-880) was 0.984, the pIC50 (XL-880) was under 5.29 and the AUC (CI-1040) was 0.602. For the same cell line, the AUC (Tubastatin A) was 0.984 and the pIC50 (Tubastatin A) was under 4.70.

WM35 (melanoma, adherent) showed an AUC (ZG-10) of 0.718, a pIC50 (ZG-10) of 5.58 and an AUC (Temozolomide) of 0.985. For the same cell line, the pIC50 (Temozolomide) was under 4.52, the AUC (IPA-3) was 0.943 and the pIC50 (IPA-3) was under 4.49. The AUC (XL-880) was 0.522, the pIC50 (XL-880) was 6.44 and the AUC (CI-1040) was 0.625. It also gave a pIC50 (CI-1040) of 5.86, an AUC (Tubastatin A) of 0.873 and a pIC50 (Tubastatin A) of 4.71.

Work on HuO9 (osteosarcoma, adherent) yielded an AUC (ZG-10) of 0.607, a pIC50 (ZG-10) of 5.90 and an AUC (Temozolomide) of 0.981. For the same cell line, the pIC50 (Temozolomide) was under 4.52, the AUC (IPA-3) was 0.981 and the pIC50 (IPA-3) was under 4.49. The AUC (XL-880) was 0.619, the pIC50 (XL-880) was 6.15 and the AUC (CI-1040) was 0.9. It also gave a pIC50 (CI-1040) of under 5.00, an AUC (Tubastatin A) of 0.984 and a pIC50 (Tubastatin A) of under 4.70.

MDA-MB-468 (breast, adherent) showed an AUC (ZG-10) of 0.674, a pIC50 (ZG-10) of 5.73 and an AUC (Temozolomide) of 0.984. It also gave a pIC50 (Temozolomide) of under 4.52, an AUC (IPA-3) of 0.987 and a pIC50 (IPA-3) of under 4.49. It also gave an AUC (XL-880) of 0.764, a pIC50 (XL-880) of 5.75 and an AUC (CI-1040) of 0.795. It also gave a pIC50 (CI-1040) of 5.35, an AUC (Tubastatin A) of 0.98 and a pIC50 (Tubastatin A) of under 4.70.

For “LK-2 (lung squamous cell carcinoma, adherent)”, the AUC (ZG-10) was 0.782, the pIC50 (ZG-10) was 5.41 and the AUC (Temozolomide) was 0.911. The pIC50 (Temozolomide) was under 4.52, the AUC (IPA-3) was 0.8 and the pIC50 (IPA-3) was 4.84. The AUC (XL-880) was 0.555, the pIC50 (XL-880) was 6.35 and the AUC (CI-1040) was 0.989. It also gave a pIC50 (CI-1040) of under 5.00, an AUC (Tubastatin A) of 0.942 and a pIC50 (Tubastatin A) of under 4.70.

Cell Line PCI-30 (head and neck, adherent) has an AUC (ZG-10) of 0.731, a pIC50 (ZG-10) of 5.47 and an AUC (Temozolomide) of 0.983. For the same cell line, the pIC50 (Temozolomide) was under 4.52, the AUC (IPA-3) was 0.985 and the pIC50 (IPA-3) was under 4.49. The AUC (XL-880) was 0.779, the pIC50 (XL-880) was 5.59 and the AUC (CI-1040) was 0.917. The pIC50 (CI-1040) was under 5.00, the AUC (Tubastatin A) was 0.983 and the pIC50 (Tubastatin A) was under 4.70.

“NCI-H1944 (lung adenocarcinoma, adherent)” showed an AUC (ZG-10) of 0.848, a pIC50 (ZG-10) of 5.09 and an AUC (Temozolomide) of 0.984. It also gave a pIC50 (Temozolomide) of under 4.52, an AUC (IPA-3) of 0.928 and a pIC50 (IPA-3) of under 4.49. The AUC (XL-880) was 0.597, the pIC50 (XL-880) was 6.22 and the AUC (CI-1040) was 0.827. For the same cell line, the pIC50 (CI-1040) was 5.18, the AUC (Tubastatin A) was 0.974 and the pIC50 (Tubastatin A) was under 4.70.

For CHSA8926 (chondrosarcoma, adherent), the AUC (ZG-10) was 0.521, the pIC50 (ZG-10) was 6.14 and the AUC (Temozolomide) was 0.973. For the same cell line, the pIC50 (Temozolomide) was under 4.52, the AUC (IPA-3) was 0.98 and the pIC50 (IPA-3) was under 4.49. It also gave an AUC (XL-880) of 0.694, a pIC50 (XL-880) of 5.85 and an AUC (CI-1040) of 0.935. For the same cell line, the pIC50 (CI-1040) was under 5.00, the AUC (Tubastatin A) was 0.976 and the pIC50 (Tubastatin A) was under 4.70.

With OV-90 (ovary, adherent) the AUC (ZG-10) was 0.828, the pIC50 (ZG-10) was 5.06 and the AUC (Temozolomide) was 0.96. It also gave a pIC50 (Temozolomide) of under 4.52, an AUC (IPA-3) of 0.982 and a pIC50 (IPA-3) of under 4.49. It also gave an AUC (XL-880) of 0.767, a pIC50 (XL-880) of 5.61 and an AUC (CI-1040) of 0.457. It also gave a pIC50 (CI-1040) of 6.33, an AUC (Tubastatin A) of 0.976 and a pIC50 (Tubastatin A) of under 4.70.

Cell Line KU-19-19 (bladder, adherent) has an AUC (ZG-10) of 0.755, a pIC50 (ZG-10) of 5.47 and an AUC (Temozolomide) of 0.975. It also gave a pIC50 (Temozolomide) of under 4.52, an AUC (IPA-3) of 0.95 and a pIC50 (IPA-3) of under 4.49. For the same cell line, the AUC (XL-880) was 0.876, the pIC50 (XL-880) was 5.29 and the AUC (CI-1040) was 0.741. For the same cell line, the pIC50 (CI-1040) was 5.51, the AUC (Tubastatin A) was 0.987 and the pIC50 (Tubastatin A) was under 4.70.

With KYSE-150 (oesophagus, adherent) the AUC (ZG-10) was 0.883, the pIC50 (ZG-10) was 5.00 and the AUC (Temozolomide) was 0.979. The pIC50 (Temozolomide) was under 4.52, the AUC (IPA-3) was 0.88 and the pIC50 (IPA-3) was 4.51. It also gave an AUC (XL-880) of 0.794, a pIC50 (XL-880) of 5.65 and an AUC (CI-1040) of 0.943. For the same cell line, the pIC50 (CI-1040) was under 5.00, the AUC (Tubastatin A) was 0.978 and the pIC50 (Tubastatin A) was under 4.70.

For HCC1395 (breast, adherent), the AUC (ZG-10) was 0.733, the pIC50 (ZG-10) was 5.47 and the AUC (Temozolomide) was 0.977. For the same cell line, the pIC50 (Temozolomide) was under 4.52, the AUC (IPA-3) was 0.963 and the pIC50 (IPA-3) was under 4.49. The AUC (XL-880) was 0.769, the pIC50 (XL-880) was 5.63 and the AUC (CI-1040) was 0.967. The pIC50 (CI-1040) was under 5.00, the AUC (Tubastatin A) was 0.966 and the pIC50 (Tubastatin A) was under 4.70.
